{
  "source": "paper PMC3760383",
  "about": "(Structure (London, England : 1993), 2011)",
  "molecular_target": "T1, His-tagged IFI16 HIN-A domain (residues 192–393) (human, UniProt Q16666-2 192-393)",
  "T1 sequence (looked up)": "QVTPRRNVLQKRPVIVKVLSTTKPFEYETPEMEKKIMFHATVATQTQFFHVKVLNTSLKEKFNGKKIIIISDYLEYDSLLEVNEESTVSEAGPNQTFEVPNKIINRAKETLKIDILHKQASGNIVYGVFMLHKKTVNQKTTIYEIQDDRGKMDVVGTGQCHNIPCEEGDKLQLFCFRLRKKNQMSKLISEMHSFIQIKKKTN",
  "assay": "pull-down",
  "data": [
    {"binder": "GST-p53 C terminus with the tetramerization domain ([…]) (domain or fragment) not shown", "values": [
      {"measurement": "binding result", "value": "binds"}
    ]}
  ]
}
